# According to PubChem BioAssay AID1671188 (National Center for Advancing Translational Sciences (NCATS), 2021):
# Out of some 100,000 compounds screened, about 250 (0.25%) were called active. Inconclusive results, whose numbers are uncertain, are shown with a selection of clear calls. The call rests on the fitted dose curve; in most records, active means well fitted inhibition curve with a large enough effect; inconclusive means small, poorly fitted or top-dose-only effect; inactive means flat fitted curve, though single readings scatter. Potencies of inconclusive entries are left out as doubtful fits.
# Target: Alanine aminotransferase 2 (Homo sapiens) (UniProt Q8TD30)
# Test: Primary qHTS assay for inhibitors of Glutamate pyruvate transaminase 2 (GPT2); further: nearly all actives have a fitted effect of over 60% in size
# Settings: Recombinant GPT2, coupled pyruvate oxidase/HRP Amplex Red fluorescence; activity change, negative = inhibition: at 57.7 µM (top of the series) unless noted; series mostly up to 57.7 µM
# Procedure, shortened: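 Recombinant GPT2 (10ng/uL) with 250uM a-KG and 2mM L-alanine, 30 min at room temperature, in HEPES pH 7.5 buffer. Pyruvate detected by pyruvate oxidase/HRP/Amplex Red fluorescence after 30 min in the dark; AOA (50uM) as positive control.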
# On the % scale 0 is the no-effect control and ±100 the full control effect; potency means the concentration at half of the fitted maximal effect; tags describe the fitted curve by direction and shape.
# UniProt Q8TD30, sequence (Q8TD30 whole entry, looked up): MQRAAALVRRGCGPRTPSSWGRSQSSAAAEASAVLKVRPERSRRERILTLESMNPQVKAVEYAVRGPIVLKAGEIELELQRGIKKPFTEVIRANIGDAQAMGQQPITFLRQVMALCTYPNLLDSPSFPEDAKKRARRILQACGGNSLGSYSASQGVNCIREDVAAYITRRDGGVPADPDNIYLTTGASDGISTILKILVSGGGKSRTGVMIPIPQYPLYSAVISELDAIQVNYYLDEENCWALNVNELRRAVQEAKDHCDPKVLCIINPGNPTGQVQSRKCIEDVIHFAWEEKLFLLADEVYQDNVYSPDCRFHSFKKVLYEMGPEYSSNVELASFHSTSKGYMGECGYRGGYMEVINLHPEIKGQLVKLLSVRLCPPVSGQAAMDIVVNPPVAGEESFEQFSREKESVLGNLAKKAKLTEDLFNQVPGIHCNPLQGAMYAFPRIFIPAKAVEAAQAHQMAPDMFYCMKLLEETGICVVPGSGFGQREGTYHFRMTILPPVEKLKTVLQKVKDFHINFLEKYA
SMILES,Potency,"activity change, negative = inhibition",outcome
O=C(Cc1ccccc1Cl)Nc1cccc(-c2nnc3n2CCCC3)c1,"inconclusive [inhibitor, single point]",–,–
CC(=O)N[C@H]1C[C@@H](c2nc(-c3ccc4c(c3)OCO4)no2)N(C)C1,–,inactive: -7.15% [at 88.5 µM],–
Cc1cc(C(=O)N2CCC3(CCC(=O)N(CCCn4ccnc4)C3)CC2)c(C)o1,"inconclusive [inhibitor, single point]",–,–
NC1CC(c2cc(NCc3noc(C(F)(F)F)n3)ncn2)C1 (stereo unspecified),"inconclusive [inhibitor, partial curve, poor fit]",–,–
CCOc1cc(=O)n2c(c1C(=O)Nc1ccc(OC)cc1OC)CCCC2,"inconclusive [inhibitor, single point]",–,–
COC(=O)N1CCC(C(=O)N2CCC(c3nc4ncccc4[nH]3)CC2)CC1,–,–,inactive
COc1cc(F)ccc1-c1cc2c(nc1-c1ccccc1)nc(C(=O)NCCN(C)C)n2C,–,inactive: 2.28%,–
Cc1ccc(Cn2c(C3CCN(C(=O)c4ccc(C(F)(F)F)cc4)CC3)n[nH]c2=O)cc1,–,inactive: -1.93%,–
CN1CCN(c2ncnc3c2CN(C2CCCCC2)C(=O)CN3C)CC1,"inconclusive [inhibitor, single point]",–,–
O=C(c1cnccn1)N1CCC(n2cc(-c3nc(-c4ccccc4)no3)nn2)CC1,–,–,inactive
O=C(Cc1ccsc1)N1CCC(n2cc(-c3nc(-c4ccccc4)no3)nn2)C1 (stereo unspecified),–,–,inactive
Cc1ccc(CCNC(=O)c2cc3c(=O)[nH]c(C)cn3n2)cc1,–,inactive: -1.3%,–
Cc1nc(Cn2nc(C3CCCNC3)n(-c3ccccc3)c2=O)cs1 (stereo unspecified),"inconclusive [inhibitor, single point]",–,–
COc1ccc(CN2CCOc3nc(Cc4ccccc4)ncc3C2=O)cc1,"inconclusive [inhibitor, single point]",–,–
CC(=O)Nc1cccc(C(=O)NCCn2ccn3nc(-c4ccc(F)cc4)cc3c2=O)c1,–,inactive: -0.455%,–
Cc1noc([C@@H]2CNC[C@H]2C(=O)N2CC=C(c3ccccc3)CC2)n1,"inconclusive [inhibitor, partial curve, poor fit]",–,–
CCC1=Nc2cc(C(=O)NCCC(C)C)ccc2Sc2ccc(Br)cc21,"inconclusive [inhibitor, single point]",–,–
CC(C)(C)c1ccc(NC(=O)O[C@@H]2CO[C@H]3[C@@H]2OC[C@@H]3Nc2nccc(-c3cccs3)n2)cc1,"inconclusive [inhibitor, single point]",–,–
O=C(c1ccccn1)N1CCC(Oc2cccnc2)C1 (stereo unspecified),"inconclusive [inhibitor, full curve, poor fit]",–,–
c1cc(-c2cc3c(ccn3Cc3ccncc3)c(N3CCOCC3)n2)c2[nH]ncc2c1,"inconclusive [inhibitor, partial curve, poor fit]",–,–
CC1=C[C@@H](CNC(=O)NC(C)C)[C@H](C(C)C)C[C@H]1Cc1nnc(-c2ccccc2F)o1,"inconclusive [inhibitor, partial curve, poor fit]",–,–

SMILES,Potency,"activity change, negative = inhibition",outcome
Cc1cc(C)cc(Nc2nc(C)cc(=O)n2CC(=O)Nc2ccc(Br)cc2)c1,"inconclusive [inhibitor, single point]",–,–
C[C@@H]1C(=O)O[C@H]2[C@H]1CC[C@@]1(C)Cc3sc(Nc4ccc(C(=O)O)cc4)nc3[C@@H](C)[C@H]21,"inconclusive [inhibitor, single point]",–,–
COc1ccc(-c2cc(-c3ccc4cn[nH]c4c3)cn3cncc23)cc1,–,–,inactive [at 88.5 µM]
C=C[C@@H]1[C@H](O[C@@H]2O[C@H](CO)[C@@H](O)[C@H](O)[C@H]2O)OC=C(C(=O)O)[C@H]1CCOC(=O)/C=C/c1ccc(O)c(O)c1,"inconclusive [inhibitor, single point]",–,–
O=C1COc2ccc(-c3ccccc3)nc2CN1Cc1ccccc1F,–,inactive: -9.01% [at 88.5 µM],–
CCC1(N2CCN(S(=O)(=O)c3ccc(Cl)cc3C)CC2)CCN(C(=O)C(C)C)C1 (stereo unspecified),"inconclusive [inhibitor, full curve, poor fit]",–,–
COc1ccc(-n2nc(C3CCCN(CC4CCCCC4)C3)[nH]c2=O)cc1 (stereo unspecified),"inconclusive [inhibitor, single point]",–,–
O=C(Cc1ccccc1)NCC1CN(C(=O)Cc2cccc(C(F)(F)F)c2)CC12CN(c1ccccc1)C2 (stereo unspecified),–,–,inactive
O=C(c1ccsc1)N1CC(c2nnc(-c3ccncc3)o2)C2(CCOCC2)C1 (stereo unspecified),"inconclusive [inhibitor, partial curve, poor fit]",–,–
Cn1nnnc1C1CCCN(C(=O)CCCc2ccccc2)C1 (stereo unspecified),"inconclusive [inhibitor, single point]",–,–
CC(=C\C(C)O)/C=C(\C)C(=O)CC1CC(CC(N)=O)CC(=O)O1 (stereo unspecified),"inconclusive [inhibitor, single point]",–,–
C[C@]1(CO)[C@H]2Cc3sc(NC(=O)c4ccc(F)cc4)nc3[C@@H](CC(=O)O)[C@]2(C)CC[C@H]1O,–,inactive: 0.493%,–
CN(C)c1nc(NCCNS(=O)(=O)c2ccc(Cl)cc2)ncc1F,"inconclusive [inhibitor, single point]",–,–
CCCc1nc(C(=O)N2CCCCC2C(=O)OCC)cs1 (stereo unspecified),"inconclusive [inhibitor, single point]",–,–
CCc1ccc(NC(=O)N2C[C@@H](F)C[C@H]2C(=O)N2CCc3ccccc3C2)cc1,–,–,inactive
O=C(NCCc1ccccc1F)c1ccc2nnc(-c3cc(C(F)(F)F)cc(C(F)(F)F)c3)n2c1,"inconclusive [inhibitor, partial curve, poor fit]",–,–
CCOc1ccccc1-n1c(Cc2ccc(O)cc2)n[nH]c1=O,"inconclusive [inhibitor, single point]",–,–
O=C(c1nnn2cc(-c3ccccc3)[nH]c(=O)c12)N1CCCCCC1,–,–,inactive
Cn1cccc1CN1CCC2(CC1)CC(c1cccnc1)=NO2,"inconclusive [inhibitor, single point]",–,–
CSCCNC(=O)c1nc2cccnc2n(Cc2ccccc2)c1=O,–,inactive: 1.83% [at 88.5 µM],–
